Assay results as given in the supplement of paper PMC7125110.
Variants at the floor of the assay are shown more often than the library holds them.

B1: glmS ribozyme (parent)
chain: AUAAAAGCGCCAGAACUACAGAAAUGUAGUUGACGAGGAGGAGGUUUAUCGAAUUUUCGGCGGAUGCCUCCAAA

Tests used:
Details in all cases: with glucosamine-6-phosphate
glucosamine-6-phosphate [1] = variants of: B1; assay: self-cleavage kobs at 40 uM GlcN6P; higher = faster cleavage; RNA array
Summary of the method: (§1)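 Glucosamine-6-phosphate, from 40 μM to 10 mM in HEPES/KCl/Mg(OAc)2 buffer, was flowed over sequenced MiSeq chips carrying barcoded ribozyme variants transcribed in situ by E. coli RNA polymerase. A hybridised Cy3 probe tracked the variants at 37 °C as tiles were imaged over ~14 h. kobs, kcat and KM were obtained by fitting normalised per-tile medians to exponential decays and then applying weighted Michaelis–Menten fits across concentrations.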

glucosamine-6-phosphate [2] = variants of: B1; assay: self-cleavage kobs at 640 uM GlcN6P; higher = faster cleavage; RNA array
Summary of the method: as §1

glucosamine-6-phosphate [3] = variants of: B1; assay: self-cleavage kobs at 160 uM GlcN6P; higher = faster cleavage; RNA array
Summary of the method: as §1

glucosamine-6-phosphate [4] = variants of: B1; assay: self-cleavage kobs at 10000 uM GlcN6P; higher = faster cleavage; RNA array
Summary of the method: as §1

glucosamine-6-phosphate [5] = variants of: B1; assay: self-cleavage kobs at 2500 uM GlcN6P; higher = faster cleavage; RNA array
Summary of the method: as §1

AUAAAAGCGCCAGAACUACAGAAAUGUAGUUGAAGAGGAGGAGGUUUAUCGAAUUUUCGGCGGUUGCCUCCAAA [C34A A64U]
< 1e-05 s⁻¹: self-cleavage kobs at 40 uM GlcN6P (glucosamine-6-phosphate [1]) | self-cleavage kobs at 640 uM GlcN6P (glucosamine-6-phosphate [2]) | self-cleavage kobs at 160 uM GlcN6P (glucosamine-6-phosphate [3]) | self-cleavage kobs at 10000 uM GlcN6P (glucosamine-6-phosphate [4])

AUAAAAGCGCCAGAACUACAGAAAUGUAGUUGAAGAGGAGGAGGUUUAUCGAAUUUUCGUCGGAUGCCUCCAAA [C34A G60U]
< 1e-05 s⁻¹: self-cleavage kobs at 40 uM GlcN6P (glucosamine-6-phosphate [1]) | self-cleavage kobs at 640 uM GlcN6P (glucosamine-6-phosphate [2]) | self-cleavage kobs at 2500 uM GlcN6P (glucosamine-6-phosphate [5]) | self-cleavage kobs at 10000 uM GlcN6P (glucosamine-6-phosphate [4])

AUAAAAGCGCCAGAACUACAGAAAUGUAGUUGAAGAGGAGGAGGUUUAUCGAAUUUUCGCCGGAUGCCUCCAAA [C34A G60C]
< 1e-05 s⁻¹: self-cleavage kobs at 40 uM GlcN6P (glucosamine-6-phosphate [1]) | self-cleavage kobs at 640 uM GlcN6P (glucosamine-6-phosphate [2]) | self-cleavage kobs at 160 uM GlcN6P (glucosamine-6-phosphate [3]) | self-cleavage kobs at 2500 uM GlcN6P (glucosamine-6-phosphate [5]) | self-cleavage kobs at 10000 uM GlcN6P (glucosamine-6-phosphate [4])

AUAAAAGCGCCAGAACUACAGAAAUGUAGUUGAAGAGGAGGAGGUUUAUCGAAUUUUCGACGGAUGCCUCCAAA [C34A G60A]
< 1e-05 s⁻¹: self-cleavage kobs at 40 uM GlcN6P (glucosamine-6-phosphate [1]) | self-cleavage kobs at 640 uM GlcN6P (glucosamine-6-phosphate [2]) | self-cleavage kobs at 160 uM GlcN6P (glucosamine-6-phosphate [3]) | self-cleavage kobs at 2500 uM GlcN6P (glucosamine-6-phosphate [5]) | self-cleavage kobs at 10000 uM GlcN6P (glucosamine-6-phosphate [4])

AUAAAAGCGCCAGAACUACAGAAAUGUAGUUGAAGAGGAGGAAGUUUAUCGAAUUUUCGGCGGAUGCCUCCAAA [C34A G43A]
< 1e-05 s⁻¹: self-cleavage kobs at 40 uM GlcN6P (glucosamine-6-phosphate [1]) | self-cleavage kobs at 2500 uM GlcN6P (glucosamine-6-phosphate [5])

AUAAAAGCGCCAGAACUACAGAAAUGUAGUUGAAGAGGAGGACGUUUAUCGAAUUUUCGGCGGAUGCCUCCAAA [C34A G43C]
< 1e-05 s⁻¹: self-cleavage kobs at 40 uM GlcN6P (glucosamine-6-phosphate [1]) | self-cleavage kobs at 640 uM GlcN6P (glucosamine-6-phosphate [2]) | self-cleavage kobs at 160 uM GlcN6P (glucosamine-6-phosphate [3]) | self-cleavage kobs at 10000 uM GlcN6P (glucosamine-6-phosphate [4])

AUAAAAGCGCCAGAACUACAGAAAUGUAGUUGAAGAGGAGGGGGUUUAUCGAACUUUCGGCGGAUGCCUCCAAA [C34A A42G U54C]
< 1e-05 s⁻¹: self-cleavage kobs at 40 uM GlcN6P (glucosamine-6-phosphate [1])

AUAAAAGCGCCAGAACUACAGAAAUGUAGUUGAAGAGGAGGAGGUUUAUAGAAUUUUCGGCGGAUGCCUCCAAA [C34A C50A]
< 1e-05 s⁻¹: self-cleavage kobs at 40 uM GlcN6P (glucosamine-6-phosphate [1]) | self-cleavage kobs at 640 uM GlcN6P (glucosamine-6-phosphate [2]) | self-cleavage kobs at 10000 uM GlcN6P (glucosamine-6-phosphate [4])

AUAAAAGCGCCAGAACUACAGAAAUGUAGUUGAAGAGGAGGAGGAUUAUCGAAUUUUCGGCGGAUGCCUCCAAA [C34A U45A]
< 1e-05 s⁻¹: self-cleavage kobs at 40 uM GlcN6P (glucosamine-6-phosphate [1])

AUAAAAGCGCCAGAACUACAGAAAUGUAGUUGAAGAGGAUGAGGUUUAUCGAAUUUUCGGCGGAUACCUCCAAA [C34A G40U G66A]
< 1e-05 s⁻¹: self-cleavage kobs at 40 uM GlcN6P (glucosamine-6-phosphate [1]) | self-cleavage kobs at 160 uM GlcN6P (glucosamine-6-phosphate [3]) | self-cleavage kobs at 10000 uM GlcN6P (glucosamine-6-phosphate [4])

AUAAAAGCGCCAGAACUACAGAAAUGUAGUUGAAGAGGAGGAGGUUUAUCGAAUUUUCGGGGGAUGCCUCCAAA [C34A C61G]
< 1e-05 s⁻¹: self-cleavage kobs at 40 uM GlcN6P (glucosamine-6-phosphate [1]) | self-cleavage kobs at 640 uM GlcN6P (glucosamine-6-phosphate [2]) | self-cleavage kobs at 160 uM GlcN6P (glucosamine-6-phosphate [3]) | self-cleavage kobs at 2500 uM GlcN6P (glucosamine-6-phosphate [5]) | self-cleavage kobs at 10000 uM GlcN6P (glucosamine-6-phosphate [4])

AUAAAAGCGCCAGAACUACAGAAAUGUAGUUGAAGAGUAGGAGGUUUAUCGAAUUUUCGGCGGAUGCCACCAAA [C34A G38U U69A]
< 1e-05 s⁻¹: self-cleavage kobs at 40 uM GlcN6P (glucosamine-6-phosphate [1])

AUAAAAGCGCCAGAACUACAGAAAUGUAGUUGAACAGGAGGAGGUUUAUCGAAUAUUCGGCGGAUGCCUCCAAA [C34A G35C U55A]
< 1e-05 s⁻¹: self-cleavage kobs at 40 uM GlcN6P (glucosamine-6-phosphate [1]) | self-cleavage kobs at 2500 uM GlcN6P (glucosamine-6-phosphate [5])

AUAAAAGCGCCAGAACUACAGAAAUGUAGUUGAAGAGGAGGAGGUUUAUCGAAUUUCCGGCGGAUGCGUCCAAA [C34A U57C C68G]
< 1e-05 s⁻¹: self-cleavage kobs at 40 uM GlcN6P (glucosamine-6-phosphate [1]) | self-cleavage kobs at 640 uM GlcN6P (glucosamine-6-phosphate [2]) | self-cleavage kobs at 2500 uM GlcN6P (glucosamine-6-phosphate [5])

AUAAAAGCGCCAGAACUACAGAAAUGUAGUUGAAGAGGAGGAGGUUAAUCGCAUUUUCGGCGGUUGCCUCCAAA [C34A U47A A52C A64U]
< 1e-05 s⁻¹: self-cleavage kobs at 40 uM GlcN6P (glucosamine-6-phosphate [1])

AUAAAAGCGCCAGAACUACAGAAAUGUAGUUGAAGAGGAGGAGGUUUGUCGAAUUUUCGGCGGAUGCCUCCAAA [C34A A48G]
< 1e-05 s⁻¹: self-cleavage kobs at 40 uM GlcN6P (glucosamine-6-phosphate [1]) | self-cleavage kobs at 640 uM GlcN6P (glucosamine-6-phosphate [2]) | self-cleavage kobs at 160 uM GlcN6P (glucosamine-6-phosphate [3]) | self-cleavage kobs at 2500 uM GlcN6P (glucosamine-6-phosphate [5]) | self-cleavage kobs at 10000 uM GlcN6P (glucosamine-6-phosphate [4])

AUAAAAGCGCCAGAACUACAGAAAUGUAGUUGAAGAGGAGGAGGUUUAUCGAAUUUUCGGCGGACGCCUCCAAA [C34A U65C]
< 1e-05 s⁻¹: self-cleavage kobs at 40 uM GlcN6P (glucosamine-6-phosphate [1]) | self-cleavage kobs at 640 uM GlcN6P (glucosamine-6-phosphate [2]) | self-cleavage kobs at 160 uM GlcN6P (glucosamine-6-phosphate [3]) | self-cleavage kobs at 2500 uM GlcN6P (glucosamine-6-phosphate [5]) | self-cleavage kobs at 10000 uM GlcN6P (glucosamine-6-phosphate [4])

AUAAAAGCGCCAGAACUACAGAAAUGUAGUUGAAGAGGAGGAGGUUUAUCGAAUCUUCGGCGGAUGCCUCCAAA [C34A U55C]
< 1e-05 s⁻¹: self-cleavage kobs at 40 uM GlcN6P (glucosamine-6-phosphate [1]) | self-cleavage kobs at 640 uM GlcN6P (glucosamine-6-phosphate [2]) | self-cleavage kobs at 160 uM GlcN6P (glucosamine-6-phosphate [3]) | self-cleavage kobs at 2500 uM GlcN6P (glucosamine-6-phosphate [5])

AUAAAAGCGCCAGAACUACAGAAAUGUAGUUGAAGAUGAGGAGUUUUAUCGAAUUUUCGGCGGAUGCCUCCAAA [C34A G37U G44U]
< 1e-05 s⁻¹: self-cleavage kobs at 40 uM GlcN6P (glucosamine-6-phosphate [1])

AUAAAAGCGCCAGAACUACAGAAAUGUAGUUGAAGAGGAGGAGGUUUAUCGAAUUCUCGGCGGAUGCCUCCAAA [C34A U56C]
< 1e-05 s⁻¹: self-cleavage kobs at 40 uM GlcN6P (glucosamine-6-phosphate [1])

AUAAAAGCGCCAGAACUACAGAAAUGUAGUUGAAGAGGAAGAGGUUUAUCGAAUUUUCGGCGGAUGCCUCCAAA [C34A G40A]
< 1e-05 s⁻¹: self-cleavage kobs at 40 uM GlcN6P (glucosamine-6-phosphate [1]) | self-cleavage kobs at 640 uM GlcN6P (glucosamine-6-phosphate [2]) | self-cleavage kobs at 2500 uM GlcN6P (glucosamine-6-phosphate [5]) | self-cleavage kobs at 10000 uM GlcN6P (glucosamine-6-phosphate [4])

AUAAAAGCGCCAGAACUACAGAAAUGUAGUUGAAGAGGAGGAGGUUUAUCGAAUUUUCGGUGGAUGUCUCCAAA [C34A C61U C67U]
< 1e-05 s⁻¹: self-cleavage kobs at 40 uM GlcN6P (glucosamine-6-phosphate [1])

AUAAAAGCGCCAGAACUACAGAAAUGUAGUUGAAGAGGAGGAGGUUGAUCGAAUUUUCGGCGGAUGCCUCCAAA [C34A U47G]
< 1e-05 s⁻¹: self-cleavage kobs at 40 uM GlcN6P (glucosamine-6-phosphate [1]) | self-cleavage kobs at 640 uM GlcN6P (glucosamine-6-phosphate [2]) | self-cleavage kobs at 160 uM GlcN6P (glucosamine-6-phosphate [3]) | self-cleavage kobs at 2500 uM GlcN6P (glucosamine-6-phosphate [5]) | self-cleavage kobs at 10000 uM GlcN6P (glucosamine-6-phosphate [4])

AUAAAAGCGCCAGAACUACAGAAAUGUAGUUGAAGAGGAGUAGGUUUAUCGAAUUUUCGGCGGAUGCCUCCAAA [C34A G41U]
< 1e-05 s⁻¹: self-cleavage kobs at 40 uM GlcN6P (glucosamine-6-phosphate [1]) | self-cleavage kobs at 640 uM GlcN6P (glucosamine-6-phosphate [2]) | self-cleavage kobs at 160 uM GlcN6P (glucosamine-6-phosphate [3]) | self-cleavage kobs at 2500 uM GlcN6P (glucosamine-6-phosphate [5]) | self-cleavage kobs at 10000 uM GlcN6P (glucosamine-6-phosphate [4])

AUAAAAGCGCCAGAACUACAGAAAUGUAGUUGAAGAGGAGGAGGUUUAUCAAAUUUUCGGCGGAUGCCUCCAAA [C34A G51A]
< 1e-05 s⁻¹: self-cleavage kobs at 40 uM GlcN6P (glucosamine-6-phosphate [1]) | self-cleavage kobs at 160 uM GlcN6P (glucosamine-6-phosphate [3]) | self-cleavage kobs at 2500 uM GlcN6P (glucosamine-6-phosphate [5])
